This is one part of the list.
What was measured:
Assay in all cases: glycan array binding signal (z-score within array); higher = stronger binding
Conditions in all cases: glycan notation: IUPAC condensed, linker removed
[1] = biological target: GlcNAc(b1-3)Gal(b1-4)GlcNAc(b1-3)Gal(b1-4)GlcNAc(b1-2)Man(a1-3)[GlcNAc(b1-3)Gal(b1-4)GlcNAc(b1-3)Gal(b1-4)GlcNAc(b1-2)Man(a1-6)]Man(b1-4)GlcNAc(b1-4)[Fuc(a1-6)]GlcNAc
In short: (§1)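 The Consortium for Functional Glycomics database supplied 3228 glycan arrays, of which those lacking an available protein sequence were dropped. The binding signal, a within-array Z-score, was averaged across arrays of the same protein sequence and across linkers. Negative scores can be read as non-binding.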

[2] = biological target: GlcNAc(b1-3)Gal(b1-4)GlcNAc(b1-3)Gal(b1-4)GlcNAc(b1-2)[GlcNAc(b1-3)Gal(b1-4)GlcNAc(b1-3)Gal(b1-4)GlcNAc(b1-6)]Man(a1-6)[GlcNAc(b1-3)Gal(b1-4)GlcNAc(b1-3)Gal(b1-4)GlcNAc(b1-2)Man(a1-3)]Man(b1-4)GlcNAc(b1-4)[Fuc(a1-6)]GlcNAc
In short: as §1

[3] = biological target: GlcNAc(b1-3)Gal(b1-4)GlcNAc(b1-3)Gal(b1-4)GlcNAc(b1-3)Gal(b1-4)GlcNAc(b1-2)Man(a1-3)[GlcNAc(b1-3)Gal(b1-4)GlcNAc(b1-3)Gal(b1-4)GlcNAc(b1-3)Gal(b1-4)GlcNAc(b1-2)Man(a1-6)]Man(b1-4)GlcNAc(b1-4)GlcNAc
In short: as §1

[4] = biological target: GlcNAc(b1-3)Gal(b1-4)GlcNAc(b1-3)Gal(b1-4)GlcNAc(b1-3)Gal(b1-4)GlcNAc(b1-2)Man(a1-3)[GlcNAc(b1-3)Gal(b1-4)GlcNAc(b1-3)Gal(b1-4)GlcNAc(b1-3)Gal(b1-4)GlcNAc(b1-2)Man(a1-6)]Man(b1-4)GlcNAc(b1-4)[Fuc(a1-6)]GlcNAc
In short: as §1

[5] = biological target: GlcNAc(b1-3)Gal(b1-4)GlcNAc(b1-3)Gal(b1-4)GlcNAc(b1-3)Gal(b1-4)GlcNAc(b1-2)[GlcNAc(b1-3)Gal(b1-4)GlcNAc(b1-3)Gal(b1-4)GlcNAc(b1-3)Gal(b1-4)GlcNAc(b1-6)]Man(a1-6)[GlcNAc(b1-3)Gal(b1-4)GlcNAc(b1-3)Gal(b1-4)GlcNAc(b1-3)Gal(b1-4)GlcNAc(b1-2)Man(a1-3)]Man(b1-4)GlcNAc(b1-4)[Fuc(a1-6)]GlcNAc
In short: as §1

[6] = biological target: GlcNAc(b1-3)Gal(b1-4)GlcNAc(b1-3)Gal(b1-4)GlcNAc(b1-3)Gal(b1-4)GlcNAc(b1-3)Gal(b1-4)GlcNAc(b1-2)Man(a1-3)[GlcNAc(b1-3)Gal(b1-4)GlcNAc(b1-3)Gal(b1-4)GlcNAc(b1-3)Gal(b1-4)GlcNAc(b1-3)Gal(b1-4)GlcNAc(b1-2)Man(a1-6)]Man(b1-4)GlcNAc(b1-4)GlcNAc
In short: as §1

[7] = biological target: GlcNAc(b1-3)Gal(b1-4)GlcNAc(b1-3)Gal(b1-4)GlcNAc(b1-3)Gal(b1-4)GlcNAc(b1-3)Gal(b1-4)GlcNAc(b1-2)Man(a1-3)[GlcNAc(b1-3)Gal(b1-4)GlcNAc(b1-3)Gal(b1-4)GlcNAc(b1-3)Gal(b1-4)GlcNAc(b1-3)Gal(b1-4)GlcNAc(b1-2)Man(a1-6)]Man(b1-4)GlcNAc(b1-4)[Fuc(a1-6)]GlcNAc
In short: as §1

[8] = biological target: GlcNAc(b1-3)Gal(b1-4)GlcNAc(b1-3)Gal(b1-4)GlcNAc(b1-3)Gal(b1-4)GlcNAc(b1-3)Gal(b1-4)GlcNAc(b1-2)[GlcNAc(b1-3)Gal(b1-4)GlcNAc(b1-3)Gal(b1-4)GlcNAc(b1-3)Gal(b1-4)GlcNAc(b1-3)Gal(b1-4)GlcNAc(b1-6)]Man(a1-6)[GlcNAc(b1-3)Gal(b1-4)GlcNAc(b1-3)Gal(b1-4)GlcNAc(b1-3)Gal(b1-4)GlcNAc(b1-3)Gal(b1-4)GlcNAc(b1-2)Man(a1-3)]Man(b1-4)GlcNAc(b1-4)[Fuc(a1-6)]GlcNAc
In short: as §1

[9] = biological target: GlcNAc(b1-3)Gal(b1-4)GlcNAc(b1-3)Gal(b1-4)GlcNAc(b1-3)GalNAc
In short: as §1

[10] = biological target: GlcNAc(b1-3)Gal(b1-4)GlcNAc(b1-3)GalNAc
In short: as §1

[11] = biological target: GlcNAc(b1-3)Gal(b1-4)GlcNAc(b1-3)[GlcNAc(b1-3)Gal(b1-4)GlcNAc(b1-3)]GalNAc
In short: as §1

[12] = biological target: GlcNAc(b1-3)Gal(b1-4)GlcNAc(b1-6)[Gal(b1-3)]GalNAc
In short: as §1

[13] = biological target: GlcNAc(b1-3)Gal(b1-4)GlcNAc(b1-6)[GlcNAc(b1-3)Gal(b1-3)]GalNAc
In short: as §1

[14] = biological target: GlcNAc(b1-3)Gal(b1-4)GlcNAc(b1-6)[GlcNAc(b1-3)]Gal(b1-4)GlcNAc
In short: as §1

GlcNAc(b1-3)GalNAc = biological target: GlcNAc(b1-3)GalNAc
In short: as §1

GlcNAc(b1-3)Man = biological target: GlcNAc(b1-3)Man
In short: as §1

[15] = biological target: GlcNAc(b1-3)[GlcNAc(b1-4)][GlcNAc(b1-6)]GlcNAc
In short: as §1

[16] = biological target: GlcNAc(b1-3)[GlcNAc(b1-6)]Gal(b1-4)GlcNAc
In short: as §1

[17] = biological target: GlcNAc(b1-3)[GlcNAc(b1-6)]GalNAc
In short: as §1

[18] = biological target: GlcNAc(b1-4)Gal(b1-4)GlcNAc
In short: as §1

GlcNAc(b1-4)GlcNAc = biological target: GlcNAc(b1-4)GlcNAc
In short: as §1

[19] = biological target: GlcNAc(b1-4)GlcNAc(b1-4)GlcNAc
In short: as §1

[20] = biological target: GlcNAc(b1-4)GlcNAc(b1-4)GlcNAc(b1-4)GlcNAc(b1-4)GlcNAc
In short: as §1

B1: mCC1-Hexahis-Precomplexed (Mus musculus), P31809 (protein)
chain: MELASAHLHKGQVPWGGLLLTASLLASWSPATTAEVTIEAVPPQVAEDNNVLLLVHNLPLALGAFAWYKGNTTAIDKEIARFVPNSNMNFTGQAYSGREIIYSNGSLLFQMITMKDMGVYTLDMTDENYRRTQATVRFHVHPILLKPNITSNNSNPVEGDDSVSLTCDSYTDPDNINYLWSRNGESLSEGDRLKLSEGNRTLTLLNVTRNDTGPYVCETRNPVSVNRSDPFSLNIIYGPDTPIISPSDIYLHPGSNLNLSCHAASNPPAQYFWLINEKPHASSQELFIPNITTNNSGTYTCFVNNSVTGLSRTTVKNITVLEPVTQPFLQVTNTTVKELDSVTLTCLSNDIGANIQWLFNSQSLQLTERMTLSQNNSILRIDPIKREDAGEYQCEISNPVSVRRSNSIKLDIIFDPTQGGLSDGHHHHHH
glycan array binding signal (z-score) [1]: -0.161 | glycan array binding signal (z-score) [2]: 0.06 | glycan array binding signal (z-score) [3]: -0.143 | glycan array binding signal (z-score) [4]: -0.218 | glycan array binding signal (z-score) [5]: 0.035 | glycan array binding signal (z-score) [6]: -0.228 | glycan array binding signal (z-score) [7]: -0.25 | glycan array binding signal (z-score) [8]: 0.179 | glycan array binding signal (z-score) [9]: 0.066 | glycan array binding signal (z-score) [10]: -0.199 | glycan array binding signal (z-score) [11]: -0.226 | glycan array binding signal (z-score) [12]: -0.27 | glycan array binding signal (z-score) [13]: -0.229 | glycan array binding signal (z-score) [14]: -0.193 | glycan array binding signal (z-score) (GlcNAc(b1-3)GalNAc): -0.207 | glycan array binding signal (z-score) (GlcNAc(b1-3)Man): -0.224 | glycan array binding signal (z-score) [15]: -0.3 | glycan array binding signal (z-score) [16]: -0.244 | glycan array binding signal (z-score) [17]: -0.144 | glycan array binding signal (z-score) [18]: -0.297 | glycan array binding signal (z-score) (GlcNAc(b1-4)GlcNAc): -0.215 | glycan array binding signal (z-score) [19]: -0.277 | glycan array binding signal (z-score) [20]: -0.234

Reference: the supplement of paper PMC8728848
